{"source": "PubChem BioAssay AID1476", "about": "(National Center for Advancing Translational Sciences (NCATS), 2009)", "note": "Screen size: about 200,000 compounds; about 4,500 (2.2%) were called active. The inconclusive results got no clear call from the source; some entries with a clear call stand among them for comparison. The call rests on the fitted dose curve; in most records, active means well fitted inhibition curve with a large enough effect; inconclusive means small, poorly fitted or top-dose-only effect, or effect the other way; inactive means flat fitted curve, though single readings scatter. A potency beside an inconclusive call is a rough fit, not a confirmed value. Potency means the concentration at half of the fitted maximal effect; tags describe the fitted curve by direction and shape."}
{"molecular_target": "Cruzipain (Trypanosoma cruzi) (UniProt P25779)", "sequence (P25779 whole entry, looked up)": "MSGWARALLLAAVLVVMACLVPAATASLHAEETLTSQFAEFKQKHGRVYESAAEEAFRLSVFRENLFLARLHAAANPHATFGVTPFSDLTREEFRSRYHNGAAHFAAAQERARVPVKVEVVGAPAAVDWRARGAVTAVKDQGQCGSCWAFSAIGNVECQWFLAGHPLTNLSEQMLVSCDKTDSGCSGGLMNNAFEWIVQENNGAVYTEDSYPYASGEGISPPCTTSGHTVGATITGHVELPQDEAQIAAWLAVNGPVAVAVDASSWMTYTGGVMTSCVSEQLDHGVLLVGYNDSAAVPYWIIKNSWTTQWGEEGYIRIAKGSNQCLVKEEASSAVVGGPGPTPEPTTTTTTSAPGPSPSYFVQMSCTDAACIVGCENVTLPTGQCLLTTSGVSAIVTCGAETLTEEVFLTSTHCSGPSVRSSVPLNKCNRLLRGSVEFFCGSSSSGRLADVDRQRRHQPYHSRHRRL", "experiment": "qHTS Assay for Promiscuous and Specific Inhibitors of Cruzain (without detergent); further: nearly all actives have a fitted effect of over 40% in size;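 on max response, negative = inhibition: plate controls were enzyme without inhibitor for no effect and buffer without enzyme for full effect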", "details": "purified cruzain, Z-FR-AMC fluorescence, no detergent", "summary_of_the_method": "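Detergent-free condition (0.00005% Triton X-100) in acetate buffer pH 5.5 with DTT. 1.5 nM enzyme and compound were pre-mixed 15 min, then 2 uM Z-FR-AMC substrate added; reaction progress from fluorescence change between first and third reads (60 s).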"}
{"smiles": "CCOc1ccc(C(=O)NCc2ccc3c(c2)CCN3C(=O)c2ccc(C)cc2)cc1OCC", "max response, negative = inhibition": "inactive: -7.35%"}
{"smiles": "O=C(COc1ncnc2c(Cl)cc(Cl)cc12)NCCC1=CCCCC1", "Potency": "inconclusive: 39.8 µM [inhibitor, single point]"}
{"smiles": "Cc1ccc(-c2cc(-c3nnc(SCC(=O)NCC(C)C)n3N)c3ccccc3n2)cc1", "Potency": "inconclusive: 31.6 µM [activator, single point]"}
{"smiles": "COC(=O)c1sc(N2C(=O)C(O)=C(C(=O)c3ccc(C)o3)C2c2ccc(F)cc2)nc1C", "note": "(stereo unspecified)", "Potency": "inconclusive: 39.8 µM [activator, single point]"}
{"smiles": "C=CCn1c(NC(=O)c2ccc(Br)o2)c(S(=O)(=O)c2ccccc2)c2nc3ccccc3nc21", "Potency": "inconclusive: 25.1 µM [activator, partial curve]"}
{"smiles": "Cc1c(C(=O)N2CCC(C)CC2)c(S(=O)(=O)N2CCN(c3cccc(Cl)c3)CC2)c(C)n1C", "Potency": "inconclusive: 31.6 µM [activator, single point]"}
{"smiles": "COc1ccc(OC)c(NC(=O)CCc2nc(-c3ccc(C)cc3)no2)c1", "max response, negative = inhibition": "inactive: -7.3%"}
{"smiles": "Cc1nc2c(ccc3nc(NC(=O)c4ccc(S(=O)(=O)N(C)C)cc4)sc32)s1", "Potency": "inconclusive: 3.98 µM [activator, single point]"}
{"smiles": "COc1ccc(Oc2nc(C)nc3c2oc2ccccc23)cc1", "Potency": "inconclusive: 31.6 µM [activator, single point]"}
{"smiles": "CCOC(=O)C1CCCN(C(=O)c2cnn3c(C(F)F)cc(-c4ccc(C)cc4)nc23)C1", "note": "(stereo unspecified)", "Potency": "inconclusive: 31.6 µM [activator, single point]"}
{"smiles": "O=[N+]([O-])c1cc(S(=O)(=O)N2CCCC2)ccc1N/N=C1/CCCc2ccccc21", "Potency": "active: 15.8 µM"}
{"smiles": "CCS(=O)(=O)N1CCN(c2ccc([N+](=O)[O-])c(NC(C)c3ccccc3)c2)CC1", "note": "(stereo unspecified)", "Potency": "inconclusive: 31.6 µM [inhibitor, single point]"}
{"smiles": "Cc1ccc(-n2ncc3c(=O)n(CC(=O)Nc4cccc(Cl)c4)cnc32)cc1C", "Potency": "active: 15.8 µM"}
{"smiles": "C=Cc1ccc(Cn2c(=O)cc(C)c3c(C)nn(C)c32)cc1", "Potency": "inconclusive: 31.6 µM [activator, single point]"}
{"smiles": "COc1ccccc1-n1cnc2c(c1=O)c1nc3ccccc3nc1n2-c1ccc(C)c(C)c1", "Potency": "inconclusive: 25.1 µM [activator, single point]"}
{"smiles": "COC(=O)c1cccc(-n2nnnc2SCC(=O)Nc2nc3c(s2)CCCC3)c1", "Potency": "inconclusive: 25.1 µM [inhibitor, single point]"}
{"smiles": "COc1ccc(NC(=O)c2cc3c(=O)n(Cc4cccnc4)ccc3nc2C)cc1Cl", "Potency": "inconclusive: 39.8 µM [activator, single point]"}
{"smiles": "CCOCCCn1cnc2c(c1=O)c1nc3ccccc3nc1n2-c1ccccc1", "Potency": "inconclusive: 39.8 µM [activator, single point]"}
{"smiles": "CCOC(=O)c1ccccc1NC(=O)c1ccc(N(C)S(C)(=O)=O)cc1", "Potency": "inconclusive: 39.8 µM [activator, single point]"}
{"smiles": "Cc1ccc(NCCC(=O)c2ccc(Cl)c(Cl)c2)cc1", "Potency": "inconclusive: 25.1 µM [inhibitor, partial curve]"}
{"smiles": "C(=N\\n1cnnc1)/c1cn(-c2cccs2)nc1-c1ccccc1", "Potency": "inconclusive: 39.8 µM [activator, single point]"}
{"smiles": "COc1ccc(C(=O)Nc2ccc(N3CCOCC3)c(C(F)(F)F)c2)cc1OC", "Potency": "inconclusive: 39.8 µM [activator, single point]"}
{"smiles": "O=C1CCCN1CCCNc1ncnc2c1[nH]c1ccccc12", "Potency": "active: 20 µM"}
{"smiles": "COc1cccc(OCC(=O)Nc2nnc3n2CCS3)c1", "max response, negative = inhibition": "inactive: 6.91%"}
{"smiles": "CCOC(=O)C1(C(C)C)Oc2ccccc2C(c2ccc(OC)cc2)=C1C(=O)OC", "note": "(stereo unspecified)", "max response, negative = inhibition": "inactive: 11.3%"}
{"smiles": "O=C(O)/C=C/c1ccc2c(-c3ccccc3)onc2c1", "Potency": "inconclusive: 39.8 µM [inhibitor, single point]"}
{"smiles": "CCn1c(COc2cccc(C)c2C)nnc1SCC(=O)N1CCN(c2ccc(OC)cc2)CC1", "Potency": "inconclusive: 20 µM [activator, partial curve]"}
{"smiles": "c1ccc(-c2nnc3ccc(N4CCC5(CC4)OCCO5)nn23)cc1", "Potency": "inconclusive: 31.6 µM [activator, single point]"}
{"smiles": "Cc1ccc(CN2C(=O)c3ccccc3Sc3ccc(C(=O)NCCCN4CCOCC4)cc32)cc1", "Potency": "inconclusive: 25.1 µM [activator, single point]"}
{"smiles": "CC(C)(C)C(=O)NCCCc1nc2ccccc2n1CCCOc1ccc(Cl)cc1", "Potency": "inconclusive: 39.8 µM [activator, single point]"}
{"smiles": "Cc1cc(Cl)ccc1OCc1cc(=O)n2c3c(sc2n1)CCCC3", "max response, negative = inhibition": "inactive: 2.69%"}
{"smiles": "O=C(COC(=O)C1c2ccccc2Oc2ccccc21)Nc1ccc2c(c1)OCO2", "Potency": "inconclusive: 31.6 µM [inhibitor, single point]"}
{"smiles": "Cc1cccc(NC(=S)NC(=O)c2cc(-c3ccccc3)nc3ccccc23)c1", "Potency": "active: 20 µM"}
{"smiles": "Cc1ccc(C(=O)/C=C/c2ccc(-c3ccccc3[N+](=O)[O-])o2)cc1", "Potency": "inconclusive: 15.8 µM [inhibitor, single point]"}
{"smiles": "Cc1cc(S(=O)(=O)N2CCC(NC(=O)C34CC5CC(CC(C5)C3)C4)CC2)ccc1-n1cnnn1", "Potency": "inconclusive: 25.1 µM [activator, single point]"}
{"smiles": "CCc1ccc(CNC(=O)CN2C(=O)CCn3nc(-c4cn(C)c5ccccc45)cc32)cc1", "Potency": "inconclusive: 39.8 µM [activator, single point]"}
{"smiles": "COc1ccccc1-c1nnc(SCC(=O)c2ccc(F)cc2)n1-c1ccccc1", "Potency": "inconclusive: 39.8 µM [inhibitor, single point]"}
{"smiles": "O=C(Nc1cccc(Cl)c1)C1CCCN1S(=O)(=O)c1cccc2cccnc12", "note": "(stereo unspecified)", "Potency": "inconclusive: 39.8 µM [inhibitor, single point]"}
{"smiles": "Cc1ccc(-c2nsc3c(N4CCN(C(=O)c5ccco5)CC4)ncnc23)cc1", "Potency": "inconclusive: 39.8 µM [activator, single point]"}
{"smiles": "COc1ccc(O[C@H]2C=C[C@@H](c3ccccc3)O[C@@H]2CO/N=C(\\C)CCN2CCc3nc(-c4ccccc4)c(-c4ccccc4)cc3C2)cc1", "Potency": "inconclusive: 1.58 µM [inhibitor, partial curve]"}
{"smiles": "CCCSc1nc2c(cnn2-c2ccc(C)cc2)c(=O)[nH]1", "Potency": "inconclusive: 31.6 µM [inhibitor, single point]"}
{"smiles": "COc1ccc(C2C=C(c3ccc(Br)cc3)Nc3nc(NS(C)(=O)=O)nn32)cc1", "note": "(stereo unspecified)", "Potency": "inconclusive: 39.8 µM [activator, single point]"}
{"smiles": "Cc1nc(-c2cccc(S(=O)(=O)N3CCCCCC3)c2)cs1", "max response, negative = inhibition": "inactive: -11.5%"}
{"smiles": "CC(C)CN(CC(C)C)S(=O)(=O)N1CCC(C(=O)NCc2ccc(F)cc2)CC1", "Potency": "inconclusive: 25.1 µM [activator, single point]"}
{"smiles": "Cc1ccc(OCCOCCOc2cccc3cccnc23)c(Br)c1", "Potency": "inconclusive: 39.8 µM [activator, single point]"}
{"smiles": "Fc1ccc(-c2nnc(CN3CCN(c4ncc(C(F)(F)F)cc4Cl)CC3)o2)cc1", "Potency": "inconclusive: 31.6 µM [activator, single point]"}
{"smiles": "O=C(O)c1ccc2cc(-c3ccc(O)c(C45CC6CC(CC(C6)C4)C5)c3)ccc2c1", "max response, negative = inhibition": "inactive: -14.4%"}
{"smiles": "CS(=O)(=O)N(CC(=O)Nc1ccccc1Sc1ccccc1)c1ccc(F)cc1", "Potency": "inconclusive: 25.1 µM [activator, single point]"}
{"smiles": "Cn1cnnc1Sc1cc(N2CCN(S(=O)(=O)c3ccc4ccccc4c3)CC2)ccc1[N+](=O)[O-]", "Potency": "inconclusive: 31.6 µM [inhibitor, single point]"}
{"smiles": "CC(=O)O[C@H]1CC[C@H]2[C@@H]3CCc4cc(O)ccc4[C@H]3CC[C@]12C", "Potency": "inconclusive: 39.8 µM [inhibitor, single point]"}
{"smiles": "COc1cc(CCNc2ccc3nnc(-c4ccccc4)n3n2)cc(OC)c1OC", "Potency": "inconclusive: 39.8 µM [activator, single point]"}
{"smiles": "O=C(O)c1ccc(N/N=C/c2ccc(OC(=O)c3ccccc3Cl)cc2)cc1", "Potency": "inconclusive: 20 µM [inhibitor, partial curve]"}
{"smiles": "COc1ccc(C(=O)Nc2cccc(-c3cn4ccsc4n3)c2)cc1OC", "Potency": "inconclusive: 39.8 µM [activator, single point]"}
{"smiles": "CS(=O)(=O)c1ccc([C@H](O)[C@H](CF)NC(=O)C(Cl)Cl)cc1", "max response, negative = inhibition": "inactive: -1.69%"}
{"smiles": "COc1ccc(-n2nc3c(N4CCC(C(=O)NCc5cccc(F)c5)CC4)nnc(C)c3c2C)cc1", "Potency": "inconclusive: 12.6 µM [inhibitor, partial curve]"}
{"smiles": "O=C(Nc1ccc2nc(-c3cccs3)c(-c3cccs3)nc2c1)N1CCOCC1", "Potency": "inconclusive: 39.8 µM [activator, single point]"}
{"smiles": "COc1ccc(S(=O)(=O)N2CN(CCc3ccc(OC)c(OC)c3)c3nc4ccccc4nc32)cc1", "Potency": "inconclusive: 39.8 µM [activator, single point]"}
{"smiles": "COC(=O)C1=C(C)NC(C)=C(C(=O)OC)C1c1cn(-c2ccccc2)nc1-c1ccco1", "Potency": "inconclusive: 39.8 µM [activator, single point]"}
{"smiles": "O=C(Oc1cccc2c(OC(=O)N3CCCC3)cccc12)N1CCCC1", "Potency": "inconclusive: 39.8 µM [activator, single point]"}
{"smiles": "Cc1c(C)n(Cc2ccccc2)c2ccc(C(=O)NCc3ccccc3F)cc12", "Potency": "inconclusive: 39.8 µM [inhibitor, single point]"}
{"smiles": "CCOC(=O)N1CCN(C(=O)C2CCN(C(=O)c3cc4sccc4n3CC)CC2)CC1", "Potency": "inconclusive: 25.1 µM [activator, single point]"}
